Measured values taken from the supplement of paper PMC11417369.
The list shows a part of the results.

Each sequence was assayed on PfSIP2 AP2 domain 1 (GST-tagged) (assay: gcPBM binding intensity (ln(normalized median fluorescence intensity)); higher = stronger DNA binding).
Outline: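 Binding of GST-tagged P. falciparum DNA-binding domains, expressed in E. coli and used at about 25 μg on average, was carried out for 1 h in 1× PBS containing 1% milk, 0.2 mg/ml BSA, 0.5% salmon testes DNA and 0.03% Triton X-100. The target was an Agilent 4 × 180k array of primer-extended double-stranded 36-bp intergenic genomic probes plus negative controls, read with Alexa488 anti-GST antibody at 488 nm. Binding intensity is the highest Masliner-normalised natural-log median intensity across replicate spots of either probe orientation.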

| Sequence | gcPBM binding intensity (ln) |
| --- | --- |
| TTGTTGTGTATTATCGTGCACATAATATAAAAGATT | 10.1 |
| AAAAAATATAAAAAAACACACAAAAAAAAAAAAAAA [CACACA_site1382] | 6.77 |
| TTCTTAAAAAATCAAACACACATATATAAATACATA [CACACA_site5301] | 7.03 |
| AAAGACGTTTATAAATGTACATACACTTTAAAAGTT [XGTACX_site8753] | 7.02 |
| CCCCATTTATCTTAAGCATGCCATGGTTTTAGATAT [TGCATGCA_site24] | 7.24 |
| ATAAAAAAAAAAAATACACACATATATATATATATA [CACACA_site1709] | 9.45 |
| TTCTTAAATGTAAATGTATATGTATTAAAAAGAGAA [TGCATGCA_negctrl_site597] | 7.23 |
| TTATAATATTAATGTGCACACAATTAAAATATTATA [CACACA_site2046] | 9.4 |
| TACTGTGTTTTGGTTGTACACACGCTACATTATATA [CACACA_site8863] | 7.21 |
| ATAGTATACAGACACACACACACACCCATATATATA [CACACA_site1736] | 7.57 |
| AGGATATAAATATTCACACACACATGGAGATATATA [CACACA_site6317] | 6.93 |
| ATACTAAATGAACACACACACATATATATATATAAT [CACACA_site4232] | 7.17 |
| AAATAAATATATAATACACACAAAAATATAAAATGG [CACACA_site5943] | 7.22 |
| TATAACTTTTTTATTACACACCTATGTAATATTATA [CACACA_site944] | 7.01 |
| AACAGACATAGAAACACACATACATACATACATACA [CACACA_site2479] | 8.53 |
| ATGTTTTATATTTTTTTTTTGTTTGCTTGTTTCCTC [CACACA_negctrl_site870] | 6.81 |
| AAGGGAAATATTGAAACACACACGAACCCACGTATT [CACACA_site252] | 6.77 |
| TATATTATAATAAGACGTACAAGGATGTTAAAACTT [XGTACX_site5828] | 7.15 |
| TACATTAACGGATTATTTCTCAATACAACATCATTT [CACACA_negctrl_site981] | 6.9 |
| GTTTGTATGTCCAAATGTACATATGATTTTATGAAA [XGTACX_site6595] | 7.07 |
| AAAAAATATTGAAGTACACACATTATAAACTTTTTT [CACACA_site5029] | 6.81 |
| ACCTAATTCAAATACAGTACATATACAATATATATA [XGTACX_site2779] | 7.44 |
| AAAATTAAAAATTACTGTACGTATTAGAGAATAAAT [XGTACX_site2567] | 7.19 |

| Sequence | gcPBM binding intensity (ln) |
| --- | --- |
| AAAATATTAATTAATACATGCATATATATATATATA [TGCATGCA_site585] | 9.66 |
| TATATTGTATAAAAATGTACATGCAATAAATTTAGT [XGTACX_site5621] | 7.71 |
| AAAAAATTGACTAATGCACACAATTACATATATATA [CACACA_site1689] | 7.86 |
| CAATTTTTCTATCATTGTACTTTTATATAATAGTGT [XGTACX_site1810] | 7.15 |
| AATTGTTCTATGATTTGTACACACTTTTTTTTAAAA [XGTACX_site5984] | 6.91 |
| ATTATAAATACACGCACACACACTTATATATATATA [CACACA_site5776] | 9.26 |
| ATGAAATATATTATATGTACATATTTATTTTTTATA [XGTACX_site7319] | 7.07 |
| ATTTTTTACGTATAGTACAAAGTTTTATGATACATA [CACACA_negctrl_site965] | 7.01 |
| CATTATAAAAAATAAAAAAGAAATAATTGTATATGC [CACACA_negctrl_site478] | 7 |
| AAATAGTAAATAAGGGGTACAAAAAAAAAAAAAAAA [XGTACX_site8362] | 6.92 |
| AAATGCTAAAAATAGAGTACAGATAACGAAAAGTGT [XGTACX_site8830] | 7.53 |
| AAGGAGAAATAAATATTAAAAAATTTATATATATAT [CACACA_negctrl_site1801] | 9.06 |
| TAATATTGCAAATATAAAAAAAAATAAACCATATAT [XGTACX_negctrl_site458] | 7.18 |
| TTCTTTTTTAACAACAAAAAAAAAAAAAAAAAAAAA [TGCATGCA_negctrl_site87] | 7.04 |
| TTTTTTGCTTTCAACACACATACAATCTATATAATC [CACACA_site4125] | 7.21 |
| TAAACCTGTAGAGATGCATGCATTGTTAACATGGTG [TGCATGCA_site515] | 6.85 |
| AAATTATAAATAATTTGTACATAAAAATTGGTAAAG [XGTACX_site5197] | 7.13 |
| ACATGTGAAGGGAACATAAATTGGGGTTTTATATTG [XGTACX_negctrl_site508] | 6.99 |
| GAATATAAAAAAGAATGTACTTGAACAGTCCTAAAA [XGTACX_site745] | 6.46 |
| TTTTTTATATTAAATGAAGAATATACAAAATTTTAA [CACACA_negctrl_site558] | 6.92 |
| TTTTGTTAGTTTTTTTTCTTATATTACATTTTCACG [CACACA_negctrl_site1466] | 6.82 |
| ATGTAGTCTCAAGACTGTACAAACAAGTAAATAAAA [XGTACX_site4120] | 6.74 |
| ACAATTTTATTTAAAGTGCATGTAAAATTAAAACTT | 9.79 |

| Sequence | gcPBM binding intensity (ln) |
| --- | --- |
| TATACATTTATGTACACACACATATATGTATATTTA [CACACA_site2966] | 6.84 |
| AATAAATATCAATACACACACACAAAAGTGAATAAA [CACACA_site3763] | 6.99 |
| AAAGGAAGAAAAAATAGTACATATATATATATATAA [XGTACX_site766] | 7.36 |
| TCCATCCACATATATGTACACACATATATATATATA [CACACA_site8970] | 9.43 |
| GTTAAGGGTATATATACACACATATGTAATACATGA [CACACA_site5650] | 6.98 |
| AAAATTTCAATAAATACACACATATATATATATATT [CACACA_site1685] | 7.07 |
| AAATAATATATGAATGCACACAGTAAAAATTAAAGA [CACACA_site2252] | 8.05 |
| AAGATTAATATTTTATGTACATATGTAATATATATG [XGTACX_site4367] | 7 |
| ATATTTTTATGATGTATCCAAGAAATGGAACTATAT [CACACA_negctrl_site1268] | 6.86 |
| AAGAATACACCACGCACACACACTTGAGAAAAAATA [CACACA_site3828] | 7.3 |
| ATATATACCTAAGACACACACATATAGATTTATATA [CACACA_site6498] | 7.11 |
| TTCTTTGTGGTATAGATACACACTATATTAATATGA [CACACA_site2150] | 7.17 |
| ATTTTAGATATCCTGCGTACACAAATTGCTTTATTT [XGTACX_site7149] | 7.16 |
| TATCTTATTTTAAAAGTGCATGGAAAGGGGTTTTTG | 7.73 |
| TGTATAAGTGCCGTTATACACACGTTATATAAATAT [CACACA_site438] | 7.07 |
| ATAAATTTATATACTTGTACATATATATATTACATA [XGTACX_site6697] | 7.19 |
| TATATATACATATACACACACACACCCATATATATA [CACACA_site2246] | 7.49 |
| TTTGAAATAAAAAGGTGTACACTCGATTAATAAATA [XGTACX_site6943] | 7.38 |
| ACTATCATTTTTTTAACACACAAAAAAAATAAAATA [CACACA_site3519] | 7.33 |
| TTTTAGCACTTATTATAAGATATCAAAAAGATGGGT [XGTACX_negctrl_site325] | 7.32 |
| TTATAAAAATAATATCGTACAAATGATAAAGATTAA [XGTACX_site4893] | 6.77 |
| TGAATTCGTCAAAAGCGTACATATAATATCTTCTTG [XGTACX_site8842] | 6.99 |
| ACATATATATATATATATAATATTTTATATTTATTA [CACACA_negctrl_site713] | 7.49 |

| Sequence | gcPBM binding intensity (ln) |
| --- | --- |
| ATATTTTTTTATAAATGTACAAAAATAATATTGCAT [XGTACX_site7399] | 7.02 |
| CCATTTACCCTTGCCATGCACACTTTTTTATAGAAA [CACACA_site3505] | 7.68 |
| AAAATAATGTTTATATGTACATATATATATATATAT [XGTACX_site8815] | 9.05 |
| TATATAGTAATATATACACACACTTGTCTTGTAAAA [CACACA_site990] | 6.9 |
| TTTTTATTTAATATTTTAAAAAAAAATCATTTTTAA [XGTACX_negctrl_site207] | 6.49 |
| TCATTTTATTATTCTACACACTTATCTATAATTACA [CACACA_site6168] | 7.29 |
| TTACATGTACAAAAGTTGCACTTCATACACTTTTAT | 8.16 |
| ATTCTATATATGTGCACACAAAAGATATATATATAT [CACACA_site2124] | 9.79 |
| CGAAGGTTTGGCCATGCATGTTATAAGAATATATGT [TGCATGCA_site441] | 6.87 |
| TCATTTCAATACACAAGTACGTATATGGTTATATTG [XGTACX_site6021] | 6.99 |
| AATATAAAATAATGCACACATAAACAAAAAATCAAA [CACACA_site1371] | 7.43 |
| TTTCCAAATTGTTGACGGACACTCACGAATAGTTAT [XGTACX_site5720] | 6.92 |
| CATATGTATATGACTACACACAAGGGTGTACATATA [CACACA_site1164] | 6.86 |
| ACATGAAGATATTTTTGTCCGTACAAATTCATATGA [XGTACX_site1837] | 6.93 |
| AGTATATCAAAATACATACACACATTTGTATATACA [CACACA_site2697] | 6.96 |
| TACGTTATGTTGAATAGTACAATTTGGTGAACAGGT [XGTACX_site1729] | 7.51 |
| GTCCTCATCCACTATGCACACAAAAAAGAAATACAC [CACACA_site9131] | 8.48 |
| TTTTTTTTTTTTTTTTGTACACAAATTTATTGTCTA [XGTACX_site2680] | 7.01 |
| TTTACATCCAAAAACTGTACACTTATTTTATAATTC [XGTACX_site5332] | 7.36 |
| ATATATATAATATGTAGTACTTTCCTCTCAAATCAT [XGTACX_site7766] | 7.42 |
